Data: patent US20170081409A1 (AGENUS, published 2017)

Assays:
Assay in all cases: suspension array (Luminex), protein coupled to beads, PE anti-human IgG detection
[1] = molecular target: T1, human ROBO2-Fc chimera (R&D systems, Cat#3147-RB-050) (human, UniProt Q9HCK4 22-859)
T1 construct: Purchased reagent coupled to Luminex microspheres; also called roundabout homolog 2; not shown: Fc portion of the purchased chimera
T1 sequence (looked up): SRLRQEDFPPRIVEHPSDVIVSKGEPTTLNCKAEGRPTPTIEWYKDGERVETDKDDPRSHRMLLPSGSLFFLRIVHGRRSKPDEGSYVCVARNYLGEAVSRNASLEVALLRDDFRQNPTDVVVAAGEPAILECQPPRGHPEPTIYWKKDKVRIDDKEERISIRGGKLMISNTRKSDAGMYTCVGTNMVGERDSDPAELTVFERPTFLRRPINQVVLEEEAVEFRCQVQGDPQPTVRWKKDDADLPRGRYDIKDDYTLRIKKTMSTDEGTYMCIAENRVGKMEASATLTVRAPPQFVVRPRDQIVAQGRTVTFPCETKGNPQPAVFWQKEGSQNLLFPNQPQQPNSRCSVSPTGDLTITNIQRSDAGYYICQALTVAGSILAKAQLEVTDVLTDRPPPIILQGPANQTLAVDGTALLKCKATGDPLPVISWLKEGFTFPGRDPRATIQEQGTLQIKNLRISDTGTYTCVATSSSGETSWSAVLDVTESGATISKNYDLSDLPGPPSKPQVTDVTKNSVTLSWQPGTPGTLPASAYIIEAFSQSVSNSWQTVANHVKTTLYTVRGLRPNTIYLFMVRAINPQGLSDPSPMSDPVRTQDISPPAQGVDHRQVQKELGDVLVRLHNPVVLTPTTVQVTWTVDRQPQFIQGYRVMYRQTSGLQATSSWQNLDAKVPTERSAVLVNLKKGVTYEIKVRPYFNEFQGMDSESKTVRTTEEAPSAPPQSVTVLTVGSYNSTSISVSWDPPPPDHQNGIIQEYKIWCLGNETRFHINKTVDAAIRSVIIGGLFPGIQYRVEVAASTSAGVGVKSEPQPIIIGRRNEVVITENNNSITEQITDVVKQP
Experimental: (§1) An anti-human IgG antibody labeled with phycoerythrin (PE) was then added to detect AGEN2034w. Binding was assessed by a Luminex® 200 detection system.

[2] = molecular target: T2, human B7-H7-Fc chimera (R&D systems, Cat#8084-B7-050) (human, UniProt Q9UM44 23-344)
T2 construct: Purchased reagent coupled to Luminex microspheres; also called B7 homolog 7; not shown: Fc portion of the purchased chimera
T2 sequence (looked up): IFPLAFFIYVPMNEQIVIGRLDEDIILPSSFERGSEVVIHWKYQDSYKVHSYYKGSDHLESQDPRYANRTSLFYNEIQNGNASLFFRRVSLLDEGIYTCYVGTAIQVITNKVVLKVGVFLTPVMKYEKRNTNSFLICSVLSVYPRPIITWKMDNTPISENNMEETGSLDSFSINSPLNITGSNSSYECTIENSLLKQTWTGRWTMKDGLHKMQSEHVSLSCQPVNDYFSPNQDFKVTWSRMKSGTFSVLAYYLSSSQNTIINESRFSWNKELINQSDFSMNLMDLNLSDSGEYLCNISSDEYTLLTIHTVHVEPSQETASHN
Experimental: as §1

[3] = molecular target: T3, human SIRPγ-His chimera (Sino Biologicals, Cat#11828-H08H) (human, UniProt Q9P1W8 29-360)
T3 construct: Purchased reagent coupled to Luminex microspheres; also called signal regulatory protein gamma; not shown: His tag
T3 sequence (Q9P1W8 29-360 limits assumed): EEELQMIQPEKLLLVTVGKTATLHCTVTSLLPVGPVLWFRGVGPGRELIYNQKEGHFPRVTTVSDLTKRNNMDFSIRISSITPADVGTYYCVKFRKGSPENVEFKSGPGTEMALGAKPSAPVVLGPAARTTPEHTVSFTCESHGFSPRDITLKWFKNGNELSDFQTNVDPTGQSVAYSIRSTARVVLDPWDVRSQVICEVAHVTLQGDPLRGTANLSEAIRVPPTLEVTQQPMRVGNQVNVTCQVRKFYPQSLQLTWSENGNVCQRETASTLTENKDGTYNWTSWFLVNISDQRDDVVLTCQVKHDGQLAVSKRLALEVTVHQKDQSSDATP
Experimental: as §1

Measured: binding result

B1: AGEN2034w (antibody, human IgG4 S228P, kappa)
heavy: QVQLVESGGGVVQPGRSLRLSCAASGFTFSSYGMHWVRQAPGKGLEWVAVIWYDGSNKYYADSVKGRFTISRDNSKNTLYLQMNSLRAEDTAVYYCASNGDHWGQGTLVTVSSASTKGPSVFPLAPCSRSTSESTAALGCLVKDYFPEPVTVSWNSGALTSGVHTFPAVLQSSGLYSLSSVVTVPSSSLGTKTYTCNVDHKPSNTKVDKRV[letters of human IgG4 Fc with S228P (EU numbers) not shown]
light: EIVMTQSPATLSVSPGERATLSCRASQSVSSNLAWYQQKPGQAPRLLIYGASTRATGIPARFSGSGSGTEFTLTISSLQSEDFAVYYCQQYNNWPRTFGQGTKVEIKRTVAAPSVFIFPPSDEQLKSGTASVVCLLNNFYPREAKVQWKVDNALQSGNSQESVTEQDSKDSTYSLSSTLTLSKADYEKHKVYACEVTHQGLSSPVTKSFNRGEC
notes: also called BADD438-2744 (VH); 3738 (VL)
no binding (tested: up to 7.5 µg/ml): [1] | [2] | [3]
